Measurements taken from the RNAGym collection of RNA variant scans (doi:10.7554/elife.90254).
The source gives no read counts; variants with many changes may rest on few reads.

B1: LINE1-mini (parent)
chain: GGCAGAGCUCAACACAGCGUGGCAAAGUGGCUGUGGCUAGACUGCC

Variants of: B1
Assay: self-cleavage, relative activity (ratio to wild type); higher = more cleavage; in vitro, sequencing; the parent is a self-cleaving ribozyme

Row | Variant | self-cleavage
1 | U9A C10A A24C G33U G40U C42G | 0
2 | U9C A12U G19U U38C | 0.01
3 | C8U G19A G21A C45A | 0.34
4 | U9A C10A C45G | 0
5 | U9C C15G G35U | 0.05
6 | U9C C31A A39G G44A | 0.01
7 | C8U G17U U20G A25G A26U G36A | 0.04
8 | U9A A14C C18A G30C U34A C42A | 0.02
9 | U9C A11U G30U | 0.03
10 | U9A A14U U20A U38A | 0.05
11 | C8U C23G A39U G40C | 0.09
12 | C8U G22U U38C C45A | 0.66
13 | C8U C23G C31G | 0.05
14 | U9C A26U C37G | 0.04
15 | C8U C31U C37A G44U | 0.01
16 | C8U G21C C31A | 0.16
17 | U9C C13U G36A A39U | 0.01
18 | U9A G36U A41U | 0.02
19 | C8U U9C A16U G29A G36C | 0.04
20 | U9C G22A G36C U43G | 0.01
21 | U9C A12C A14C G19U A24G U38G | 0
22 | U9A A12C C13U A14U G17C U28A C46U | 0.02
23 | U9A G29U C31U G33U G35A C37G | 1.29
24 | U9C G19U C37G | 0.02

Row | Variant | self-cleavage
25 | C8U G33C A39U | 0.15
26 | U9A G22U U38G G40U | 0.16
27 | U9C C10A C31U | 0.01
28 | U9C A14C G19C U20G U28G C31U | 0.01
29 | U9A C10U G22C A39U C46G | 0.04
30 | C8U G17A G22U | 0.17
31 | U9A G33A G40U | 0.25
32 | C8U G30U U43C | 0.1
33 | C8U G33A C45A | 0.18
34 | C8U G35U G40C | 0.07
35 | C8U G35U G40U | 0.14
36 | U9A C15A G44U | 0.05
37 | C8U G17U U20A A25G C31U G40A A41C | 0.07
38 | U9C A25C C46U | 0.03
39 | U9A U38A A39U | 0.05
40 | U9A C31G G33C | 0.27
41 | U9A C13U A14C | 0.18
42 | U9A G44U C46A | 0.49
43 | U9A C10A C31U | 0.05
44 | U9C G35A C46A | 0.02
45 | C8U C23U A39C | 0.18
46 | C8U C23U G30A | 0.72
47 | U9C C18A C37U U38G | 0.01
48 | U9G A11C C37U U38A C46U | 0.01

Row | Variant | self-cleavage
49 | U9C A11C C13U C23A G35U U38A G44C | 0.01
50 | U9A G35U C46U | 0.15
51 | U9C C10U U28A U38C | 0.02
52 | U9C A14C C15G | 0.01
53 | U9C A12G A26G C42G | 0.01
54 | U9G A11C A26G C31U | 0
55 | U9A C10G C23U G27U | 0.02
56 | U9A G29C G36U | 0.01
57 | U9G A11G C13A G44U | 0.04
58 | C8U U20C G35A | 0.08
59 | U9A A14C C15U C18A A24G | 0
60 | C8U G19U G36C | 0.11
61 | U9A G19U C37A A39C | 0.07
62 | U9A C15G U28C C37G | 0.02
63 | U9A G35A C45U | 0.07
64 | U9A G19A G22A A26U G30C C31U U38A | 0.02
65 | U9C C10U A12G G22C A26U | 0
66 | C8U U28A G30U | 0.12
67 | C8U U9C G40U | 0.03
68 | U9C A14G A26C G30C | 0
69 | C8U U20A G35C G36U | 0.23
70 | U9A U28G C37A | 0.06
71 | C8U U9C U20G C31G G33U U34C | 0.02
72 | U9C U20G U38C | 0.03

Row | Variant | self-cleavage
73 | U9A U20C G40U | 0.04
74 | U9A A25U U32C U38C | 0.03
75 | U9C G22C C31U | 0
76 | C8U C23U C45U | 0.27
77 | U9A G22C C31A U43G | 0.01
78 | U9C C23U U28G C46G | 0.01
79 | U9C A26G G36U | 0.03
80 | C8U C42G G44A | 0.06
81 | U9A G19A C46A | 0.17
82 | U9C C13U C31G | 0
83 | U9C A11G A14C C23U G44A C45U C46A | 0.01
84 | C8U U32A A41C G44C | 0.1
85 | C8U U9A G21C G27U | 0.08
86 | C8U G19C A25G G30U U32A G36C C45A | 0.06
87 | U9A C10A G21C | 0.05
88 | U9C C18G G22U U32G | 0.02
89 | C8U G40C C46A | 0.03
90 | U9C C10U C23G G33U G40A | 0
91 | U9A C15G U28G G33A C37A A39U U43G | 0.08
92 | U9A A12G G19U U28G G33U | 0.08
93 | U9A C15G A16C G21A A25U | 0.04
94 | U9A C15A C23G G29A C42G C45U | 0.13
95 | U9A A16G G22U | 0.04
96 | C8U G19A G22C G40U | 0.06

Row | Variant | self-cleavage
97 | U9C G22C U28A G40U | 0.06
98 | U9C C10U C13A C46A | 0.03
99 | U9A C31A G44C | 0.12
100 | U9A C31A C46A | 0.09
101 | C8U U34G G35C | 0.06
102 | U9A G19U G22C G36C U38A | 0.03
103 | U9A U20G C23U G44C | 0.02
104 | C8U G19C A24U G27U | 0.15
105 | U9C C31U C45A | 0.01
106 | C8U G19C U32C G33A G35A | 0.06
107 | C8U U9A G17A G29U | 0.2
108 | U9C C31A G35U G40U | 0.01
109 | U9A U20C A24U A41G C46A | 0.04
110 | U9C C23G C31A | 0.01
111 | U9C C10A U38A | 0.02
112 | U9C A25C G29U C31A G33A | 0
113 | U9A C18A C45G | 0.15
114 | U9A A26U U28A | 0.04
115 | U9C A12U G27A G30U | 0.02
116 | U9A C10U A24U | 0.02
117 | U9A A12G C31A U32C | 0.19
118 | U9C G19A C23U C46A | 0.06
119 | U9A G22C A25G | 0.03
120 | C8U G33A G44U | 0.36

Row | Variant | self-cleavage
121 | U9A G17U U28A | 0.11
122 | U9C C13G G21C | 0.02
123 | U9A C10U A24U G30U G44U | 0.06
124 | U9A A14G C31U | 0.01
125 | C8U G21U G40U | 0.2
126 | U9A A16C C23U C37G | 0.03
127 | U9C C10A A14U G17U G19U | 0.01
128 | C8U G17U G40U | 0.06
129 | U9C G36C A39U C45A | 0.02
130 | U9C A14U C42G | 0.01
131 | U9A A12U C42G C45A | 0.12
132 | U9A C15A A26U | 0.2
133 | U9A G27U G30A | 0.18
134 | U9A G19U U20C | 0.04
135 | C8U C23A G29A | 0.06
136 | U9A A26U G36A | 0.16
137 | U9C A26U G36C U38G | 0.02
138 | U9C C13A C46G | 0.02
139 | U9A C13A C18U G19C U28C U34A U43G | 0.01
140 | U9A G27C U38G G40U | 0.12
141 | U9A A12G G22U C37G | 0.01
142 | U9A C13U G44C | 0.28
143 | C8U G21U A24C C31G | 0.13
144 | U9A C15G U20G G35U A39U | 0.12

Row | Variant | self-cleavage
145 | U9C C18U U43A | 0.05
146 | U9A C10A U28A | 0.02
147 | C8U C18G U32C G36C G40C | 0.04
148 | U9A A11G A16C G35C U43A G44C | 0
149 | U9C G22A A26U C45G | 0.04
150 | U9A C10U C23A G30C U43A | 0.03
151 | U9A A14U G35A | 0.8
152 | U9A C10G G29C C45G | 0
153 | U9A A25C G27C C31G | 0.03
154 | C8U U9C U28C | 0.23
155 | C8U G19A G36U | 0.06
156 | U9A U20C C37U | 0.11
157 | C8U G19U G22A | 0.19
158 | U9C G22A U34A C37A | 0.03
159 | U9C C13U G19U U28A | 0.01
160 | U9A C23A C45A | 0.18
161 | C8U G19C U20G | 0.09
162 | U9A G21C C31A | 0.02
163 | U9C U28G C46A | 0.02
164 | C8U C37A C42A | 0.04
165 | C8U U9A G40U | 0.16
166 | U9A G21U G22C C31U U34A G36U C37A U43G | 0.02
167 | U9A G19C U28C | 0.04
